Experimental findings from PMC5700166 are described below.

This is a selection; strong and weak results do not stand in their true shares. The list includes weakly bound sequences.

For the assay, the target named is T1, GST-Aq-NF-kB (UniProt A9Y5G7).
T1 sequence: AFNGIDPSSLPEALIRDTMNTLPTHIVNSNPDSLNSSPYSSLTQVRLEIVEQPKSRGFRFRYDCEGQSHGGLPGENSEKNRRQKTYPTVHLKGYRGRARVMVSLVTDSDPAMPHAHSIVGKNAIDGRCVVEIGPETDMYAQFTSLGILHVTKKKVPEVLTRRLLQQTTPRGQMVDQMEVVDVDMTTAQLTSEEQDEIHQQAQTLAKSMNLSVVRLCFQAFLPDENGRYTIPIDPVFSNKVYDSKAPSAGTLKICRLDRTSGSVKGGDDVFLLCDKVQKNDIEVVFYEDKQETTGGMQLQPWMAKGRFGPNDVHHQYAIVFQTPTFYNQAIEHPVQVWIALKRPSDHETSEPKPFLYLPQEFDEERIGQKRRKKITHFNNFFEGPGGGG
Put plainly: protein-binding microarray (PBM). The following applies: PBM: ~300 nM protein, 6 mM HEPES pH 7.8, 80 mM KCl, 0.5 mM EDTA, 0.5 mM EGTA, 6% glycerol, 35 ng/ul poly-dIdC, 1% milk, 1 h, room temperature; Ap Aiptasia and Nv Nematostella (sea anemones) / Co Capsaspora / Aq Amphimedon (sponge) / Dm Drosophila / Hu human; RHD is the Rel homology domain; high values mean tight binding; most listed sequences are background and not binding sites; double strand, one strand shown.
As to “CCGATTAACATCAGGGGGTTGACTGATGTTAATCGGGTCTTGATTCGCTTGACGCTGCTG”, the binding signal amounted to 3.95 z-score.

As to “CCGATTAACATCAAAAATCCCACTGATGTTAATCGGGTCTTGATTCGCTTGACGCTGCTG”, the binding signal worked out at 3.87 z-score. In turn, “CCGATTAACATCAGGCGATCCCCTGATGTTAATCGGGTCTTGATTCGCTTGACGCTGCTG” returned a binding signal of 5.06 z-score. In the case of “CCGATTAACATCAGGGAATACCCTGATGTTAATCGGGTCTTGATTCGCTTGACGCTGCTG” it was 10.2 z-score. In the case of “CCGATTAACATCAAGGGGGATTCTGATGTTAATCGGGTCTTGATTCGCTTGACGCTGCTG” it was 7.13 z-score; in that of “CCGATTAACATCAATATCCCCCATGATGTTAATCGGGTCTTGATTCGCTTGACGCTGCTG”, 4.55 z-score. In the case of “CCGATTAACATCAAGATTTCCCATGATGTTAATCGGGTCTTGATTCGCTTGACGCTGCTG” it was 3.35 z-score; in that of “CCGATTAACATCAAGGGGGGTGGTGATGTTAATCGGGTCTTGATTCGCTTGACGCTGCTG”, 4.15 z-score. Take “CCGATTAACATCATAAATTCCCATGATGTTAATCGGGTCTTGATTCGCTTGACGCTGCTG”: the binding signal was 3.71 z-score. Turning to “CCGATTAACATCATATTGGGAAATGATGTTAATCGGGTCTTGATTCGCTTGACGCTGCTG”, the binding signal amounted to 0.882 z-score.

Take “CCGATTAACATCATTGGGAAAAATGATGTTAATCGGGTCTTGATTCGCTTGACGCTGCTG”: the binding signal turned out to be 1.92 z-score. To “CCGATTAACATCAATTTGGGAAATGATGTTAATCGGGTCTTGATTCGCTTGACGCTGCTG” belongs 0.788 z-score; to “CCGATTAACATCAAACTTTTCCCTGATGTTAATCGGGTCTTGATTCGCTTGACGCTGCTG”, 4.63 z-score. As to “CCGATTAACATCAGGGAAAACACTGATGTTAATCGGGTCTTGATTCGCTTGACGCTGCTG”, the binding signal was 6.06 z-score.

“CCGATTAACATCAGGGGGTCTACTGATGTTAATCGGGTCTTGATTCGCTTGACGCTGCTG”: the binding signal is 4.4 z-score.

In turn, “CCGATTAACATCAAAGCCCCCCCTGATGTTAATCGGGTCTTGATTCGCTTGACGCTGCTG” came in with a binding signal of 5.12 z-score.

For “CCGATTAACATCAAAAATTCCCATGATGTTAATCGGGTCTTGATTCGCTTGACGCTGCTG”, the binding signal is 6.55 z-score. As for “CCGATTAACATCAAACAAACCCCTGATGTTAATCGGGTCTTGATTCGCTTGACGCTGCTG”, the binding signal was 3.95 z-score. To “CCGATTAACATCACCCCATCTCGTGATGTTAATCGGGTCTTGATTCGCTTGACGCTGCTG” belongs 0.862 z-score. Sequence “CCGATTAACATCATGTATGCCCCTGATGTTAATCGGGTCTTGATTCGCTTGACGCTGCTG” yielded a binding signal of 2.51 z-score. To “CCGATTAACATCAAAGGGAATAGTGATGTTAATCGGGTCTTGATTCGCTTGACGCTGCTG” belongs 2.54 z-score; to “CCGATTAACATCACAAAATTCCCTGATGTTAATCGGGTCTTGATTCGCTTGACGCTGCTG”, 6.82 z-score; to “CCGATTAACATCATTCCGGGAAATGATGTTAATCGGGTCTTGATTCGCTTGACGCTGCTG”, 1.95 z-score. To “CCGATTAACATCAGGGAACTTTATGATGTTAATCGGGTCTTGATTCGCTTGACGCTGCTG” belongs 5.17 z-score; to “CCGATTAACATCAAAGCACCCCCTGATGTTAATCGGGTCTTGATTCGCTTGACGCTGCTG”, 4.36 z-score.

“CCGATTAACATCACCCAATTCCCTGATGTTAATCGGGTCTTGATTCGCTTGACGCTGCTG”: the binding signal is 2.94 z-score. The sequence “CCGATTAACATCAGCATTCCCCCTGATGTTAATCGGGTCTTGATTCGCTTGACGCTGCTG” had a binding signal of 5.57 z-score.

“CCGATTAACATCAAAGTCCCGGGTGATGTTAATCGGGTCTTGATTCGCTTGACGCTGCTG” had a binding signal of 3.49 z-score. In the case of “CCGATTAACATCAGGGAGTCCCCTGATGTTAATCGGGTCTTGATTCGCTTGACGCTGCTG” it was 9.35 z-score. The sequence “CCGATTAACATCAACGTCCCCCCTGATGTTAATCGGGTCTTGATTCGCTTGACGCTGCTG” registered a binding signal of 4.66 z-score. In the case of “CCGATTAACATCAGAAAACCCCCTGATGTTAATCGGGTCTTGATTCGCTTGACGCTGCTG” it was 8.84 z-score; in that of “CCGATTAACATCACCAAAATCCCTGATGTTAATCGGGTCTTGATTCGCTTGACGCTGCTG”, 2.86 z-score. In the case of “CCGATTAACATCAGAAATCCCAATGATGTTAATCGGGTCTTGATTCGCTTGACGCTGCTG”, the binding signal is 2.14 z-score.

Sequence “CCGATTAACATCAAAATTCCCACTGATGTTAATCGGGTCTTGATTCGCTTGACGCTGCTG” yielded a binding signal of 4.54 z-score. “CCGATTAACATCAAAGAGCCCCCTGATGTTAATCGGGTCTTGATTCGCTTGACGCTGCTG” returned a binding signal of 5.01 z-score. In the case of “CCGATTAACATCACCTTCTTTACTGATGTTAATCGGGTCTTGATTCGCTTGACGCTGCTG” it was 0.584 z-score. In the case of “CCGATTAACATCAGGGAAACTCATGATGTTAATCGGGTCTTGATTCGCTTGACGCTGCTG” it was 4.27 z-score.
